# PubChem BioAssay AID1345083 (National Center for Advancing Translational Sciences (NCATS), 2018)
# About 6,200 (6.6%) of roughly 94,000 compounds were called active. Inconclusive results, whose numbers are uncertain, are shown with a selection of clear calls. Calls come from the whole dose curve; as a rule, active = well fitted inhibition curve with a large enough effect; inconclusive = small, poorly fitted or top-dose-only effect; inactive = flat fitted curve, though single readings scatter. Potencies beside an inconclusive call are fits to weak or partial responses and may not hold up.
# Assay: Cytotoxic Profiling in HEK 293 Cell Line of Diverse Libraries Using Quantitative High-Throughput Screening; note: nearly all actives have a fitted effect of over 60% in size
# Details: HEK 293 viability, ATP luminescence (CellTiter-Glo), 48-72 h; activity change, negative = cytotoxicity: at 115 µM (top of the series) unless noted; series mostly up to 115 µM
# Outline: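 Cytotoxicity was scored by loss of ATP-coupled luminescence (CellTiter-Glo) in HEK 293 cells. Compound treatment ran 48 or 72 hr at 37 degree Celsius, 5% CO2, 95% humidity.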
# % is set by controls: 0 for no effect and ±100 for the full control effect; potency is the fitted concentration of half-maximal effect; tags give direction and shape of the fitted curve.
SMILES,Potency,outcome,"activity change, negative = cytotoxicity"
CSc1ccc(CNC(=O)CCc2conc2-c2cccc(C)c2)cc1,"inconclusive: 89.1 µM [inhibitor, single point]",–,–
O=C(Nc1ccc(F)c(Cl)c1)N1CCC2(CC1)SCC(=O)N2Cc1ccco1,"inconclusive: 39.8 µM [inhibitor, partial curve, poor fit]",–,–
CCn1nccc1C(=O)N1CCC(C(=O)N2CCCCCCNC(=O)CC2)CC1,–,inactive,–
CC(C)OC(=O)N1CCC(COc2ccc3c(cnn3CC[S+](C)(=O)[O-])c2)CC1,"inconclusive: 50.1 µM [inhibitor, partial curve]",–,–
O=C(NCc1ccccc1)N1CC(Oc2ccc(-c3nc(-c4ccccc4)no3)cc2)C1,"inconclusive: 89.1 µM [inhibitor, single point]",–,–
N#Cc1cccc(C(=O)Nc2ccc3ncnc(N4CCCCC4)c3c2)c1,"inconclusive: 50.1 µM [inhibitor, partial curve, poor fit]",–,–
Cc1noc([C@@H]2CN(C(=O)Cc3c(F)cccc3Cl)C[C@H]2CO)n1,"inconclusive: 50.1 µM [inhibitor, partial curve, poor fit]",–,–
CCN1CCN(Cc2cc(C)cc(CN(C)Cc3ccccn3)c2C)CC1,–,–,inactive: -8.09%
C[C@]1(O)CCN(C(=O)c2ccc(N3CCOCC3)cc2)C[C@@H]1O,–,–,inactive: 2.9%
COc1ccc(C(=O)N2CCC3(CC2)NC(=O)N(c2ccccc2)N3)cn1,"inconclusive: 20 µM [inhibitor, partial curve, poor fit]",–,–
COc1ccc(C(=O)N2CCN(C(=O)c3nc4cccnc4n(C4CC4)c3=O)CC2)cc1,–,–,inactive: -6.85%
CN(Cc1cnccn1)c1ccc(-c2nc(CCCc3ccccc3)no2)cn1,–,–,inactive: -22.5%
COc1ccc(CN2C(=O)CO[C@H](c3ccc(NC(=O)Nc4ccccc4)cc3)[C@H]2CO)cc1,"inconclusive: 79.4 µM [inhibitor, partial curve]",–,–
CCc1ccc(C(=O)N2CCC3(CC2)N=C(c2ccc(C)cc2)NO3)cc1,"inconclusive: 56.2 µM [inhibitor, partial curve, poor fit]",–,–
COc1cncc(CN2CCC3(CC2)OC(=O)N(Cc2csc(C)n2)C3(C)c2ccccc2)c1 (stereo unspecified),–,–,inactive: -17.4%
Cc1ccsc1CN1CCc2nc(N(C)Cc3cccnc3)[nH]c(=O)c2CC1,"inconclusive: 70.8 µM [inhibitor, single point]",–,–
O=C(C1CCCNC1)N1CCCn2cc(-c3ccccc3F)nc21 (stereo unspecified),"inconclusive: 79.4 µM [inhibitor, single point]",–,–
O=C(NCc1cccc(C(F)(F)F)c1)c1cn2cc(-c3ccc(C(F)(F)F)cc3)sc2n1,"inconclusive: 79.4 µM [inhibitor, partial curve, poor fit]",–,–
O=C(C1CN(c2ccccc2)C(=O)N1)N1CCN(Cc2ccccc2)CC1 (stereo unspecified),active: 44.7 µM,–,–
COc1ccc(-c2ccc3nnc(CNC(=O)c4cccc(C#N)c4)n3n2)cc1,"inconclusive: 89.1 µM [inhibitor, single point]",–,–
CC[C@H](C(=O)N1CCC2(CC1)Nc1ccccc1NC2=O)c1ccccc1,"inconclusive: 79.4 µM [inhibitor, partial curve, poor fit]",–,–
O=C(NCc1cccs1)c1nc2cccnc2n(Cc2ccccc2)c1=O,–,–,inactive: -11%

SMILES,Potency,outcome,"activity change, negative = cytotoxicity"
Cc1ccc(C2Cn3cnc(C(=O)N4CCC(C(=O)NCCC5=CCCCC5)CC4)c3CO2)cc1 (stereo unspecified),–,–,inactive: -13.5%
Cc1ccc(-c2ccc3nnc(CNC(=O)c4ccccn4)n3n2)cc1,"inconclusive: 35.5 µM [inhibitor, full curve]",–,–
COCCc1noc(CC2CCOC3(CCN(S(=O)(=O)c4cccc5cccnc45)CC3)C2)n1 (stereo unspecified),"inconclusive: 50.1 µM [inhibitor, partial curve, poor fit]",–,–
NC(=O)[C@H](CC1CCCCC1)NC(=O)[C@@H]1CN(S(=O)(=O)c2ccccc2)CCN1S(=O)(=O)c1ccccc1,–,–,inactive: -27.3%
COc1cccc(Nc2ncc3c(n2)C(C)(C(=O)NCc2cccnc2)CC3)c1 (stereo unspecified),active: 79.4 µM,–,–
COc1ccc(C(=O)N2CCCC3(C2)NC(=O)N(Cc2ccc(C)cc2)C3=O)cc1OC (stereo unspecified),–,–,inactive: -1.4%
Cc1cc(NCCc2cnccn2)nc(-c2ccccc2O)n1,"inconclusive: 50.1 µM [inhibitor, partial curve, poor fit]",–,–
CCN(CCOC)C(=O)c1coc(COc2ccc3sc(C)nc3c2)n1,"inconclusive: 8.91 µM [inhibitor, full curve, poor fit]",–,–
O=C(Cn1cccc1-c1nc(-c2ccc3c(c2)OCO3)no1)Nc1ccc2c(c1)OCCO2,"inconclusive: 89.1 µM [inhibitor, single point]",–,–
Fc1ccccc1Nc1cnc2ccc(-c3ccccc3)nn12,active: 100 µM,–,–
COc1ccc(-c2cc3[nH]ccc3c(C(=O)NCc3c(C)cc(C)[nH]c3=O)n2)cc1,"inconclusive: 35.5 µM [inhibitor, full curve, poor fit]",–,–
O=C1NCCCCCCN(C(=O)Nc2ccccc2)[C@H]2C[C@H](c3nc(Cc4ccccc4)no3)C[C@@H]12,"inconclusive: 89.1 µM [inhibitor, partial curve, poor fit]",–,–
COc1ccc(C(=O)NC2CCCc3c2[nH]c2ccccc32)cc1OC (stereo unspecified),active: 44.7 µM,–,–
CC(=O)Nc1cccc(-c2ccc3c(n2)CN(Cc2ccccc2F)C(=O)CO3)c1,"inconclusive: 63.1 µM [inhibitor, partial curve, poor fit]",–,–
COCCCNC(=O)C1CCCN(c2nccc(Nc3ccccc3F)n2)C1 (stereo unspecified),"inconclusive: 79.4 µM [inhibitor, partial curve]",–,–
O=C(NCC1CC1)[C@@H]1CCCN1c1nccc(Nc2ccccc2Cl)n1,"inconclusive: 11.2 µM [inhibitor, full curve, poor fit]",–,–
CNC(=O)c1cc(C2CC2)nc2c1c(C1CCCN(C(=O)c3ccc(F)cc3)C1)nn2C (stereo unspecified),"inconclusive: 79.4 µM [inhibitor, single point]",–,–
OC1CCOC2(CCN(Cc3ccccc3OC(F)(F)F)CC2)C1 (stereo unspecified),–,–,inactive: -1.26%
CCOc1ccccc1NC(=O)C1CN(S(=O)(=O)C2CC2)CC12CCCCC2 (stereo unspecified),"inconclusive: 28.2 µM [inhibitor, partial curve, poor fit]",–,–
COc1ccc(-c2cc(N3CCCN(C(=O)c4ccc(OC)cc4OC)CC3)n[nH]2)cc1,active: 39.8 µM,–,–
COc1ccc2c3c1CN(C)CC3=CC(C)(C)CO2,"inconclusive: 63.1 µM [inhibitor, partial curve, poor fit]",–,–
O=C(NC1CCN(Cc2ccc(-c3ccsc3)cc2)C1)c1ccccn1 (stereo unspecified),"inconclusive: 56.2 µM [inhibitor, partial curve, poor fit]",–,–

SMILES,Potency,outcome,"activity change, negative = cytotoxicity"
Cc1nc(C2CC(O)C2)cc(N2CCN(c3ccc(F)c(Cl)c3)CC2)n1 (stereo unspecified),active: 17.8 µM,–,–
Cc1ccc(-n2nc3n(c2=O)CCN(C(=O)c2cccc(Cl)c2)C3)cc1,"inconclusive: 79.4 µM [inhibitor, partial curve]",–,–
O=C(CCc1nnn2c1CN(C(=O)c1ccc(F)cc1)CC2)NC1CC1,–,–,inactive: -7.93%
CCOc1ccccc1CN1C[C@@H](CO)[C@H](NC(=O)C2CC2)C1,–,–,inactive: -2.57%
Cc1nn(-c2ccccc2)c2c1C(C)N(CC1CN(C(=O)NC(C)C)C1)C2=O (stereo unspecified),–,–,inactive: -5.9%
CN1CC(=O)N2CCN(Cc3nn(C)c4cccc(Cl)c34)CC2C1=O (stereo unspecified),"inconclusive: 31.6 µM [inhibitor, full curve]",–,–
Cc1nn(-c2ccccc2)c2c1C(C(C)C)N(C1CCCN(C(=O)Nc3ccccc3F)C1)C2=O (stereo unspecified),"inconclusive: 50.1 µM [inhibitor, partial curve, poor fit]",–,–
CN(Cc1ccccc1)C(=O)C[C@@H]1c2nc(NC(=O)CC(C)(C)C)sc2C[C@@H]2[C@](C)(CO)[C@H](O)CC[C@]21C,"inconclusive: 44.7 µM [inhibitor, partial curve]",–,–
O=C(C1CC1)N1CCC(N2C(=O)C(OCC3CC3)C23CCOCC3)CC1 (stereo unspecified),–,–,inactive: -8.17%
O=C1[C@@H]2C[C@@H](CN2Cc2ncc[nH]2)Oc2ccccc2N1Cc1ccc(OC(F)(F)F)cc1,"inconclusive: 79.4 µM [inhibitor, partial curve, poor fit]",–,–
COCCCNC(=O)CCN(CCC(C)C)C(=O)c1cc(C)oc1C,"inconclusive: 89.1 µM [inhibitor, single point]",–,–
NS(=O)(=O)CCCC(=O)N1CCCC(CCc2ccccc2F)C1 (stereo unspecified),"inconclusive: 28.2 µM [inhibitor, partial curve, poor fit]",–,–
CN(CCC(O)c1ccccc1)c1nccc(-c2cccnc2)n1 (stereo unspecified),active: 31.6 µM,–,–
Cc1ccc(NC(=O)N2CCC(CCNC(=O)Cc3cccc(F)c3)CC2)cc1F,–,–,inactive: -9.97%
O=C(NC1CCCc2nc(N3CCC(CO)CC3)ncc21)c1ccccn1 (stereo unspecified),–,–,inactive: -16.6%
CCc1ccccc1NC(=O)CN1C(=O)C(c2ccccc2)=NC12CCCCCC2,"inconclusive: 44.7 µM [inhibitor, partial curve, poor fit]",–,–
COc1ccc(C)cc1NC(=O)Cn1nc2n(c1=O)CCCC2,–,–,inactive: 1.29%
COc1cccc(CN2CC[C@@]3(O)CCNC[C@H]3C2)c1OCCCn1ccnc1,–,inactive,–
Cn1nc(C2CCCN2)c2c(C(=O)NCc3ccc(F)cc3)cc(C3CC3)nc21 (stereo unspecified),"inconclusive: 50.1 µM [inhibitor, partial curve, poor fit]",–,–
COc1ccc(OC)c(NC(=O)N2CCc3nc(-c4ccccc4)[nH]c3C2)c1,"inconclusive: 8.91 µM [inhibitor, full curve, poor fit]",–,–
N#Cc1ccc(S(=O)(=O)N2CCC(C3CCNC3)CC2)cc1 (stereo unspecified),–,–,inactive: -30.8%
COc1cccc(NC(=O)Nc2cccc(-c3ccc(N4CCOCC4)nn3)c2)c1,"inconclusive: 39.8 µM [inhibitor, partial curve, poor fit]",–,–
